The other results are listed elsewhere or left out. Single values are uncertain, as repeats are few or missing.
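Also: cell number obtained by counting DAPI-stained nuclei in high-throughput microscope images with image analysis software, screen run in 1,536-well plates.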

The assay concerns UACC62. Kind of assay: cell count relative to DMSO control; melanoma cells; higher = more viable cells. Particulars: library dose: low library concentration; 72 h.
As for `CN1CCN(c2ccc3nc(-c4c(N)c5c(F)cccc5[nH]c4=O)[nH]c3c2)CC1` [Dovitinib] + O=C(Oc1ccc([N+](=O)[O-])cc1)N1CCC(C(O)(c2ccc3c(c2)OCO3)c2ccc3c(c2)OCO3)CC1 [JZL184] (first compound 0.1 µM, partner dose 1 µM), the cell count is 73%.
On to `Clc1ccc(Nc2nnc(Cc3ccncc3)c3ccccc23)cc1` [vatalanib] + C/C(O)=C(\C#N)C(=O)Nc1cc(Br)ccc1Br [LFM-A13] (first compound 2 µM, partner dose 2 µM), for which the cell count was 93.1%.
The result for `CC(C)C[C@H](NC(=O)[C@H](Cc1ccccc1)NC(=O)c1cnccn1)B(O)O` [Bortezomib] + C[As](C)SC[C@H](NC(=O)CC[C@H](N)C(=O)O)C(=O)NCC(=O)O [Darinaparsin] (first compound 0.001 µM, partner dose 0.4 µM) reads 77%; that for `Cc1cc([N+](=O)[O-])ccc1NS(=O)(=O)c1cc(Cl)ccc1Cl` + O=C(Oc1ccc([N+](=O)[O-])cc1)N1CCC(C(O)(c2ccc3c(c2)OCO3)c2ccc3c(c2)OCO3)CC1 [JZL184] (first compound 1 µM, partner dose 1 µM), 91.4%.
`Cc1cc(Nc2cc(N3CCN(C)CC3)nc(Sc3ccc(NC(=O)C4CC4)cc3)n2)n[nH]1` [Tozasertib] + Cn1cc(C2=C(c3cn(C4CCN(Cc5ccccn5)CC4)c4ccccc34)C(=O)NC2=O)c2ccccc21 [Enzastaurin] (first compound 0.006 µM, partner dose 0.8 µM) showed a cell count of 104%.

The values are drawn from the supplement of paper PMC4604168 (melanoma cell lines).
